Measurements as given in the antibiotic and cytotoxicity screens of Wong et al. (2023).
This is one part of the list.

system: S. aureus RN4220; test: growth inhibition call (relative growth <= 0.2); details: 50 µM

Growth inhibition call, inactive:
COc1ccc(NC(=O)N(C)C[C@@H]2Oc3c(NS(C)(=O)=O)cccc3C(=O)N([C@H](C)CO)C[C@H]2C)cc1, Cl.Clc1ccc2nsnc2c1NC1=NCCN1, Cc1cccc(S(=O)(=O)N2C[C@@H](O)COC[C@H]3O[C@H](CC(=O)NCc4ccc(Cl)c(Cl)c4)CC[C@@H]32)c1, CC(=O)c1cc2ccccc2s1, C[C@H]1CN([C@@H](C)CO)C(=O)Cc2cc(NC(=O)Cc3ccccc3)ccc2O[C@@H]1CN(C)S(=O)(=O)c1cn(C)cn1, COc1ccccc1CNC(=O)C[C@@H]1C[C@@H]2c3cc(NS(=O)(=O)c4ccc(F)cc4)ccc3O[C@@H]2[C@@H](CO)O1, COC(=O)N/N=C/c1c[n+]([O-])c2ccccc2[n+]1[O-], CCS(=O)(=O)NCC[C@@H]1CC[C@@H](NS(=O)(=O)c2cccc(F)c2)[C@@H](CO)O1, COc1ccc(NC(=O)Nc2ccc3c(c2)C(=O)N([C@@H](C)CO)C[C@@H](C)[C@H](CN(C)S(C)(=O)=O)O3)cc1, O=C([C@H]1[C@H](CO)[C@H]2Cn3c(cccc3=O)[C@@H]1N2CC1CCCC1)N1CCOCC1, Nc1nc(=O)c2nc(Br)n([C@H]3O[C@H]4CO[PH](O)(O)O[C@@H]4[C@@H]3O)c2[nH]1, Cl.N=C(N)NCCCC(N)C(=O)O (centres undefined), CCOC(=O)[C@@H]1[C@H](Cc2ccccc2)[C@H]2c3cc(OC)c(OC)cc3CCN2C(=O)N1c1ccc(OC)cc1, C[C@@H]1CN([C@H](C)CO)S(=O)(=O)c2ccc(C#CCC3CCCC3)cc2O[C@H]1CN(C)C(=O)c1cnccn1, C[C@@H]1CCCCO[C@@H](CN(C)Cc2ccc3c(c2)OCO3)[C@@H](C)CN([C@@H](C)CO)C(=O)c2cc(NC(=O)c3ccccc3)ccc2O1, CC(=O)/C=C/c1ccc(-c2ccc([C@H]3CC(=O)C[C@@H](c4ccccc4)C34C(=O)c3ccccc3C4=O)cc2)cc1, CC(C)NC(=O)N(C)C[C@H]1Oc2c(NS(=O)(=O)c3cn(C)cn3)cccc2C(=O)N([C@H](C)CO)C[C@H]1C, C[C@H]1CN([C@@H](C)CO)S(=O)(=O)c2ccc(C#CCN(C)C)cc2O[C@@H]1CN(C)C(=O)Nc1ccccc1F, C[C@@H]1CN([C@H](C)CO)C(=O)c2cc(NC(=O)Nc3cccc4ccccc34)ccc2O[C@H]1CN(C)C(=O)Nc1cccc2ccccc12, COCC(=O)Nc1ccc2c(c1)OC[C@@H](C)N(Cc1cccc(F)c1)C[C@@H](C)[C@@H](OC)CN(C)C2=O, COc1cccc(OC[C@@H](O)CN(CCO)CCO)c1, C[C@@H]1CN([C@H](C)CO)S(=O)(=O)c2ccc(C#Cc3ccncc3)cc2O[C@H]1CN(C)C(=O)Nc1ccc2c(c1)OCO2, COc1cccc(-c2cnc3c(c2)C(=O)N([C@H](C)CO)C[C@H](C)[C@H](CN(C)S(=O)(=O)c2cccs2)O3)c1, Cc1noc(C)c1S(=O)(=O)N(C)C[C@@H]1OCCCC[C@H](C)Oc2ccc(NS(=O)(=O)c3cn(C)cn3)cc2C(=O)N([C@@H](C)CO)C[C@H]1C, O=C(Nc1ccn([C@H]2O[C@H](CO)[C@@H](O)[C@@H]2O)c(=O)n1)c1ccccc1, C[C@@H]1CN([C@H](C)CO)C(=O)Cc2cc(NC(=O)NC3CCCCC3)ccc2O[C@@H]1CN(C)Cc1ccc(C(=O)Nc2ccccc2N)cc1, C[C@@H]1CN([C@H](C)CO)C(=O)c2cc(NS(=O)(=O)c3ccccc3)ccc2O[C@@H](C)CCCCO[C@H]1CN(C)Cc1ccc2c(c1)OCO2, C[C@H](CO)N1C[C@H](C)[C@H](CN(C)Cc2ccc(C(=O)Nc3ccccc3N)cc2)Oc2c(NC(=O)c3nc4ccccc4s3)cccc2C1=O, CC(=O)N1[C@H](Cn2cncn2)C[C@H]2CN(S(C)(=O)=O)CC[C@H]21, C[C@@H]1CCCCO[C@H](CN(C)Cc2ccc(Cl)c(Cl)c2)[C@@H](C)CN([C@@H](C)CO)C(=O)c2cc(NS(=O)(=O)c3ccc(F)cc3)ccc2O1, Cc1noc(C)c1S(=O)(=O)Nc1ccc2c(c1)CC(=O)N([C@@H](C)CO)C[C@H](C)[C@@H](CN(C)C(=O)NC1CCCCC1)O2, C[C@H](CO)N1C[C@H](C)[C@H](CN(C)Cc2ccc(-c3ccccc3)cc2)Oc2ccc(NC(=O)Nc3ccccc3)cc2C1=O, COc1ccc(NC(=O)N(C)C[C@H]2Oc3c(NC(=O)c4cc(C)nn4C)cccc3C(=O)N([C@@H](C)CO)C[C@H]2C)cc1, C[C@H]1CN([C@@H](C)CO)C(=O)c2cccc(NC(=O)c3ccc(-c4nccs4)cc3)c2O[C@H]1CN(C)CC1CCCCC1, Cc1noc(C)c1NC(=O)Nc1ccc2c(c1)C(=O)N([C@H](C)CO)C[C@H](C)[C@H](CN(C)S(=O)(=O)c1ccc(F)cc1)OCCCC[C@@H](C)O2, C[C@@H]1CN([C@H](C)CO)C(=O)c2cc(NC(=O)NC3CCCCC3)ccc2O[C@@H](C)CCCCO[C@@H]1CN(C)S(=O)(=O)c1ccc(Cl)cc1, Cc1ccc(S(=O)(=O)N(C)C[C@@H]2OCCCC[C@H](C)Oc3ccc(NC(=O)Nc4ccccc4)cc3C(=O)N([C@H](C)CO)C[C@@H]2C)cc1, O=CC(O)C(O)C(O)CO (centres undefined), C[C@@H]1CN([C@H](C)CO)C(=O)c2cccc(NC(=O)CCCCCC(=O)Nc3ccccc3N)c2O[C@H]1CN(C)Cc1ccccc1
